The text below walks through data of PMC4336329 (PLoS ONE, 2015).

SMILES strings stand for the structures. The whole screen tested about 310,000 compounds, of which about 2,200 (0.71%) showed an effect of 50% or more. Effects have a minus sign here. The list shows a part of the results.

For this test, the target named is human ether-à-go-go-related gene (hERG) potassium channel (human, UniProt Q12809). Kind of test: primary screen, population patch clamp on CHO cells stably expressing hERG.
human ether-à-go-go-related gene (hERG) potassium channel, sequence (Q12809 whole entry, looked up): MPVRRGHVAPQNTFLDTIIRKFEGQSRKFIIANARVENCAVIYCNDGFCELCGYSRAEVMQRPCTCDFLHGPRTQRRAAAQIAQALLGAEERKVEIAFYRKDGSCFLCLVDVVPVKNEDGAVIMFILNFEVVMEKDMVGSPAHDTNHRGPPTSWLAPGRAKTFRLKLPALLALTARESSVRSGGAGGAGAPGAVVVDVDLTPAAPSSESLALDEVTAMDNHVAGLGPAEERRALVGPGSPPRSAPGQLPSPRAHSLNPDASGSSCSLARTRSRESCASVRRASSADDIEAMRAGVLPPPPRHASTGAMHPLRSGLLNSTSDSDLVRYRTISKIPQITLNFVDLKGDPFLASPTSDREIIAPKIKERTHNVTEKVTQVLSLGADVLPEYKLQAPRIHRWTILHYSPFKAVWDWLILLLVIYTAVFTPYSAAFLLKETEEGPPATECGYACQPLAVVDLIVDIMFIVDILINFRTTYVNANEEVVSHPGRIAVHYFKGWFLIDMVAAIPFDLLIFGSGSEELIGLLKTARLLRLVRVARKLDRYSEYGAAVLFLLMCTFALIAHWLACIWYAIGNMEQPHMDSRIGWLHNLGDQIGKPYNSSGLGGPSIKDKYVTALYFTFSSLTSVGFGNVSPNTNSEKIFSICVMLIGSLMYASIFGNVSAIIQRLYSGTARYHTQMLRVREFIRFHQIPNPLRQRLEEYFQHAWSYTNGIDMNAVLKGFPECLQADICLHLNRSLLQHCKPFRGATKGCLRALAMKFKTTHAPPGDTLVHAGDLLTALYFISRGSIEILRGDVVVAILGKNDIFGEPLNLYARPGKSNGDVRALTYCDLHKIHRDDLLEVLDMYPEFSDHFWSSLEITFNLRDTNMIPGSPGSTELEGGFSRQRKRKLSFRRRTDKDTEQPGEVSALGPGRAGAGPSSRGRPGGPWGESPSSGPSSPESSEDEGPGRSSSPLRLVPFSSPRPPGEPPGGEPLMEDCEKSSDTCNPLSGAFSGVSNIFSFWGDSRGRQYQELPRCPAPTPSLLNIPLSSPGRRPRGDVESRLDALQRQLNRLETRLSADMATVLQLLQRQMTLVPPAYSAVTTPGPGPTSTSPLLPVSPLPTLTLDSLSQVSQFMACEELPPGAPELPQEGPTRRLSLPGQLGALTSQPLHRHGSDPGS
Consider `N#Cc1ccc(C(=O)N2CCN(S(=O)(=O)c3ccc(Br)s3)CC2)cc1`, for which the “hERG current change (%, negative = inhibition) at 1uM” value is reported as -7.18%. To `O=C(c1sc2ccccc2c1Cl)N1CCN(c2ccccn2)CC1` belongs -7.53%. To `Cc1ccc(CNC(=O)C2CCCN2C(=O)Nc2ccc(F)cc2)cc1` (stereo not drawn) belongs 12.9%; to `COc1cc(OC)c(S(=O)(=O)N2CCN(C(=O)c3ccco3)CC2)cc1NC(C)=O`, 11%. With `COc1ccc(Cl)cc1NC(=O)CN(C)C(=O)c1ccc(OCc2ccccc2)c(OC)c1` the figure was 12.4%. As for `Cc1ccc(C)c(SCc2nc3sc(C(=O)O)c(C)c3c(=O)[nH]2)c1`, the “hERG current change (%, negative = inhibition) at 1uM” value was found to be 14.4%. To `NS(=O)(=O)c1ccc(NC(=S)N2CCN(c3cccc(Cl)c3)CC2)cc1` belongs 9.55%; to `COc1ccc(OC)c(CN2CCN(c3ccc(S(=O)(=O)N4CCCC4)cn3)CC2)c1`, 3.95%.

For the molecule `Cc1ccccc1NC(=O)CN1CCc2ccccc2C1`, the “hERG current change (%, negative = inhibition) at 1uM” value is 18.2%.

For `O=S(=O)(NC1CC1)c1ccc(S(=O)(=O)N2CCc3ccccc32)cc1`, the “hERG current change (%, negative = inhibition) at 1uM” value was -5.99%. With `COc1ccc(C2=CC3=C(Br)C(=O)C(C)(OC(=O)c4ccc(Cl)nc4)C(=O)C3=CO2)cc1` (stereo not drawn) the figure was 9.53%. To `CCn1c(SCC(=O)Nc2ccc(OC)c(OC)c2)nnc1-c1c[nH]c2ccccc12` belongs 6.41%; to `CCOC(=O)N1CCN(S(=O)(=O)N2CCCC(C(=O)NCCCN3CCC(C)CC3)C2)CC1` (stereo not drawn), 12.3%. Consider `CCN1C(=O)CSC1=Nc1ccc(OC)cc1`, for which the “hERG current change (%, negative = inhibition) at 1uM” value worked out at 17.5%. To `COc1c(NC(C)=O)c2ccccc2c2ccccc12` belongs 11.4%; to `Fc1ccc(NC(=S)NCCN2CCOCC2)cc1`, 7.95%. With `CCc1ccc(S(=O)(=O)c2nnn3c2nc(N2CCOCC2)c2ccccc23)cc1` the figure was 11.2%; with `Cc1ccccc1NC(=O)CCNS(=O)(=O)c1ccc2c(c1)CCC(=O)N2`, 10.3%; with `O=C(CN1C(=O)COc2ccccc21)Nc1ccc(N2CCOCC2)cc1`, 2.74%. With `CCCC(=O)NC(=S)Nc1ccc(S(=O)(=O)Nc2ccc(OCC)cc2)cc1` the figure was 7.39%. For `N#C/C(=C\c1ccc(-c2ccccc2)cc1)c1nc(-c2ccco2)cs1`, the “hERG current change (%, negative = inhibition) at 1uM” value is on record as 1.87%. For `CCOc1ccc(S(=O)(=O)N2CCC(C(=O)NCC3CCCO3)CC2)cc1` (stereo not drawn), the “hERG current change (%, negative = inhibition) at 1uM” value was 3.92%.

With `CCCC/C(O)=C1\C(=O)CCCC1=NCCc1c(C)[nH]c2ccc(OC)cc12`, the “hERG current change (%, negative = inhibition) at 1uM” value is recorded as 6.39%. To `O=C(NC(NCc1ccccn1)(C(F)(F)F)C(F)(F)F)c1ccco1` belongs -1.63%. As for `CC(C)Oc1cccc(NC(=O)c2cccn(Cc3ccc4c(c3)OC(F)(F)O4)c2=O)c1`, the “hERG current change (%, negative = inhibition) at 1uM” value is given as 7.37%. With `CCOC(=O)c1ccc(N2C(=O)c3n[nH]c(C)c3C2c2ccc(OC)c(OC)c2)cc1` (stereo not drawn) the figure was 9.99%; with `CC(=O)NCCSC(=O)c1ccc(F)cc1`, 9.39%. With `CCOC(=O)N1CCN(C(=O)CCc2ccc(S(=O)(=O)NC(C)(C)C)cc2)CC1` the figure was 11.6%. As to `CC(=O)N1CCN(C(=O)CN2C(=O)NC(C)(c3ccc4ccccc4c3)C2=O)CC1` (stereo not drawn), the “hERG current change (%, negative = inhibition) at 1uM” value is reported as 9.92%.

Consider `C=CCSc1nnc2n(-c3ccccc3OC)c(=O)c3c4c(sc3n12)CCC4`, for which the “hERG current change (%, negative = inhibition) at 1uM” value is on record as -0.969%.

Regarding `O=C(Nc1ccc(Cl)cc1)N1CCN(C(=O)C2CCCO2)CC1` (stereo not drawn), the “hERG current change (%, negative = inhibition) at 1uM” value amounted to 14.7%. With `O.O=P1(N(CCCl)CCCl)NCCCO1` (stereo not drawn) the figure was 15%; with `COC(=O)COc1ccc(S(=O)(=O)Nc2ccccc2SC)cc1`, -7.53%.

As to `O=c1c2ccccc2[nH]c(=S)n1Cc1cccs1`, the “hERG current change (%, negative = inhibition) at 1uM” value is reported as -2.1%. `Cc1cc2ccccc2c(=O)n1CC(=O)NCC(=O)N1CCN(c2ccccc2)CC1`: the “hERG current change (%, negative = inhibition) at 1uM” value was -0.938%. Turning to `COc1ccc(OCC(=O)NCCCCCCNC(=O)COc2ccc(OC)cc2)cc1`, the “hERG current change (%, negative = inhibition) at 1uM” value is reported as 8.53%. To `Cc1cccc(C(=O)NCCCNC(=O)c2ccccn2)c1` belongs 21.5%; to `CCOc1ccc(S(=O)(=O)N2CCCC(C(=O)NCc3ccccn3)C2)cc1Cl` (stereo not drawn), 1.48%.

`Cc1cccc(N2CCN(C(=O)N3CCOCC3)CC2)c1C`: the “hERG current change (%, negative = inhibition) at 1uM” value was found to be 10.2%.

`O=C(CCNC(=O)c1ccco1)Nc1ccc(Cl)c(C(F)(F)F)c1`: the “hERG current change (%, negative = inhibition) at 1uM” value worked out at 10.5%. With `NC(=S)NN=C1C2CC3CC(C2)CC1C3` the figure was 1.69%; with `COc1cc(/C=C(\C#N)C(=O)NCC2CCCO2)ccc1O` (stereo not drawn), -2.15%; with `Nn1c(SCC(=O)NCCCc2ccccc2)nnc1-c1cccnc1`, 9.27%. `CCOC(=O)C1=C(COC(=O)/C=C/c2cccc(Br)c2)NC(=O)NC1C` (stereo not drawn): the “hERG current change (%, negative = inhibition) at 1uM” value is recorded as -7.77%. With `Cc1cc(OC(C)C(=O)N(Cc2cccs2)C2CCS(=O)(=O)C2)ccc1Cl` (stereo not drawn) the figure was 4.5%; with `CS(=O)(=O)NC1CCN(Cc2ccccc2)CC1`, -0.401%; with `CC(=O)N1CCN(Cc2nc3cc(NC(=O)c4ccc(Cl)cc4)ccc3n2C)CC1`, -12.9%. With `C=CCn1c(N)c(-c2nc3ccccc3n2C)sc1=S` the figure was 7.71%. To `O=C(CS(=O)CC(=O)N(c1cccc(F)c1)C(C(=O)NC1CCCCC1)c1ccco1)Nc1ccc(F)cc1` (stereo not drawn) belongs 5.02%. `CCC(C)(C)NC(=O)C(c1ccncc1)N(C(=O)c1sc(C)nc1C)c1ccc(F)cc1` (stereo not drawn): the “hERG current change (%, negative = inhibition) at 1uM” value worked out at 7.8%. With `Cn1c(=O)c2c(nc(Oc3ccccc3Cl)n2C)n(C)c1=O` the figure was 11.6%. With `Cc1cc(=O)[nH]c(NN)n1` the figure was 6.74%; with `COC(=O)c1cn(S(=O)(=O)c2ccccc2)c2ccccc12`, 13%; with `CCN(CC)S(=O)(=O)c1ccc(N2CCN(C)CC2)c(NC(=O)c2cc(=O)c3ccccc3o2)c1`, 0.504%. With `COc1ccc(N2CCN(C(=O)CCS(=O)(=O)c3ccc4c(c3)CCN4C(=O)C3CC3)CC2)cc1` the figure was 7.86%; with `O=C(Nc1sccc1C(=O)NCc1ccco1)c1cccnc1`, 9.91%.

Turning to `Cc1cc(C)cc(NC(=O)Cn2nnc(C(=O)NCc3ccc(F)cc3)c2N)c1`, the “hERG current change (%, negative = inhibition) at 1uM” value was determined as 13.3%. With `Fc1ccccc1NC(=S)N(CCN1CCCCCC1)Cc1cccs1` the figure was -2.49%; with `COCC(C)NC(=O)CCSc1nc(-c2ccc(OC)cc2)cc(C(F)(F)F)n1` (stereo not drawn), 9.5%; with `CC(C)C1=Nc2cccc3cccc(c23)N1.Cl`, 9.04%. To `COc1ccc(CNCc2ccncc2)cc1OC.Cl` belongs 12.7%; to `Nc1ccc(C(=O)OCc2csc(-c3ccccc3)n2)cc1[N+](=O)[O-]`, 15%; to `COc1ccc(NS(=O)(=O)c2ccc(N3CCOCC3)c(N)c2)cc1`, -0.916%. In the case of `Cc1ccc(NC(=O)C2CCCN(c3ncnc4c3nc3n4CCCCC3)C2)nc1` (stereo not drawn), the “hERG current change (%, negative = inhibition) at 1uM” value is -14.5%.

Consider `CC1(C)CC2(CCO1)OC(=O)CC2C(=O)Nc1c(Cl)cccc1Cl` (stereo not drawn), for which the “hERG current change (%, negative = inhibition) at 1uM” value worked out at 8.72%.

As to `O=C(CC1CCCCC1)N=C1SC2CS(=O)(=O)CC2N1c1ccccc1` (stereo not drawn), the “hERG current change (%, negative = inhibition) at 1uM” value was 7.25%. For `CN(CC(=O)Nc1ccccc1F)Cc1cccs1`, the “hERG current change (%, negative = inhibition) at 1uM” value was 18.1%. To `CCOC(=O)Cc1csc(NC(=O)Nc2ccc(OC(F)(F)F)cc2)n1` belongs 17.3%; to `CC(=Nc1ccc(C)cc1)c1sc2ccccc2c1O`, 11.9%. To `CCC(C(=O)NC1CCCCC1)n1c(SCc2cccc(C)c2)nc2ccncc21` (stereo not drawn) belongs 7.82%. For the molecule `Cc1ccc([C@@H]2CC=C(C(=O)O)[C@H](c3ccc(F)cc3)N2S(=O)(=O)c2ccc(C)cc2)cc1`, the “hERG current change (%, negative = inhibition) at 1uM” value was determined as 12.6%. To `COC(=O)C1=C(C)NC(C)=C(C(=O)OC)C1C(=O)OCc1nc2cc(C(=O)OC)ccc2c(=O)[nH]1` belongs -5.17%; to `COc1ccc(NC(=O)/C(=C\c2ccncc2)NC(=O)c2ccccc2)cc1`, 1.44%. For the molecule `Cc1sc2ncn(CC(=O)NCCCC(=O)N3CCC4(CC3)OCCO4)c(=O)c2c1C`, the “hERG current change (%, negative = inhibition) at 1uM” value is 10.7%. With `Cc1ccc(Cn2c(N3CCN(CCO)CC3)nc3c2c(=O)n(C)c(=O)n3C)cc1` the figure was 7.9%; with `O=c1nc(C(F)(F)F)nc2ccccn12`, -2.42%; with `O=C(c1ccccc1)N1CCN(S(=O)(=O)c2cccc(NS(=O)(=O)c3ccccc3)c2)CC1`, 12.4%. To `Cc1ccc2c(c1)cc(CN(Cc1ccco1)C(=O)COc1ccccc1)c1nnnn12` belongs 10.3%; to `CCOC(=O)c1c(Nc2ccc(Cl)cc2)sc(/C=C2\C=Nc3ccccc32)c1O`, 6.89%. With `CC(C)(C)NC(=O)CSCc1c(Cl)cccc1Cl` the figure was -8.75%. Turning to `N#CCCN(Cc1ccccc1)C(=S)Nc1ccc(F)cc1`, the “hERG current change (%, negative = inhibition) at 1uM” value worked out at 12.8%.

`Cc1nn(Cc2ccccc2)c(C)c1C=C1C(=O)NC(=O)NC1=O`: the “hERG current change (%, negative = inhibition) at 1uM” value is recorded as 10.3%. To `NC1=NC(=O)C(Cc2cccc(Cl)c2Cl)S1` (stereo not drawn) belongs 16.3%; to `CCCNc1nc2c(c(=O)n(C)c(=O)n2C)n1CCCc1ccccc1`, 3.11%; to `COc1ccc(OC)c(S(=O)(=O)N2CCC(C(=O)N3CCOCC3)CC2)c1`, 18.9%.

As for `CSc1nsc(SCC(=O)Nc2ccc(C(=O)O)cc2)n1`, the “hERG current change (%, negative = inhibition) at 1uM” value worked out at 9.92%. As for `CN(CC1CCCN(CCc2cccc(C(F)(F)F)c2)C1)C(=O)c1ccco1` (stereo not drawn), the “hERG current change (%, negative = inhibition) at 1uM” value is -38.3%.
